From the supplement of paper PMC10600219
Where a name gives a salt, the structure may show the parent alone. In all, about 2,800 compounds were measured (“cell viability relative to vehicle”: median about 0.98, lowest 2% from about 0.45 on). The list shows a part of the results.

tested on: NCI-H2228 alectinib-DTP; experiment: cell viability relative to vehicle (fraction of vehicle); NCI-H2228 is an ALK-positive lung cancer line and DTP means drug-tolerant persister; higher = less growth inhibition; settings: 100 nM; treatment time 6 days
Outline: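 The 3114-agent TargetMol anti-cancer compound library was tested at 100 nM for 6 days on parental NCI-H2228 cells and on persister cells derived with 1000 nM of a targeted drug for 13 days. ATP readout by the CellTiter-Glo 3D Cell Viability Assay gave cell viability relative to DMSO vehicle-treated cells.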

SMILES	cell viability
O=C(O)CNC(=O)C1C(=O)N(C2CCCCC2)C(=O)N(C2CCCCC2)C1=O [Daprodustat]	0.908
Oc1cc(O)cc(/C=C/c2c(O)cccc2O)c1 [Gnetol]	0.91
CC(=O)O[C@H]1CC[C@@]2(C)C(=CC[C@@H]3[C@@H]2CC[C@]2(C)C(=O)CC[C@@H]32)C1 [Dehydroepiandrosterone acetate]	0.856
CC(C)OC(=O)[C@H](C)N[P@](=O)(CO[C@H](C)Cn1cnc2c(N)ncnc21)Oc1ccccc1 [Tenofovir alafenamide]	0.829
COc1cc([C@@H]2c3cc4c(cc3[C@H](O)[C@H]3COC(=O)[C@H]23)OCO4)cc(OC)c1O [4'-Demethylpodophyllotoxin]	1.1
CN1C[C@H](CNC(=O)OCc2ccccc2)C[C@@H]2c3cccc4c3c(cn4C)C[C@H]21 [Metergoline]	1.07
C[C@H](CS(C)(=O)=O)n1ccc2c(C(F)(F)F)c(C#N)ccc21	1.09
CC(C)c1cccc(C(C)C)c1O [Propofol]	1.08
COc1c(C)c(O)cc2[o+]c(-c3ccccc3)ccc12.[O-][Cl+3]([O-])([O-])[O-] [Dracorhodin perochlorate]	1.25
C=C1C2CC3(C1O)C1CC4C5(C)CCC(O)C4(C1N(CC)C5)C3CC2=O (centres undefined) [Napellonine]	0.931
Oc1cc(O)cc(/C=C/c2ccc(O)cc2O)c1 [Oxyresveratrol]	0.952
C=C1C[C@@H]2[C@H](CC[C@]3(C)C(=O)CC[C@@H]23)[C@@]2(C)C=CC(=O)C=C12 [Exemestane]	0.791
O=P1(N(CCCl)CCCl)NCCCO1 (centres undefined) [Cyclophosphamide monohydrate]	1.27
Cn1c(CCCCCCC(=O)NO)nc2cc(N(CCCl)CCCl)ccc21 [Minomustine]	0.926
CCCCCc1cc(O)cc(O)c1 [Olivetol]	0.931
CN1CCN(c2cccc3[nH]c(=O)oc23)CC1 [Pardoprunox hydrochloride]	0.925
COP(=S)(OC)Oc1ccc(Sc2ccc(OP(=S)(OC)OC)cc2)cc1 [Temephos]	1.18
C[C@@]1(C(=O)O)CC[C@]2(C)CC[C@]3(C)C4=CC(=O)c5c(cc(O)c(O)c5C=O)[C@]4(C)CC[C@@]3(C)[C@@H]2C1 [Demethylzeylasteral]	0.869
COc1ccc(/C=C2\CCCN=C2c2cccnc2)c(OC)c1 [GTS 21 dihydrochloride]	0.871
COc1ccc(OC)c(C(O)C(C)N)c1 (centres undefined) [Methoxamine hydrochloride]	1.19

SMILES	cell viability
Cn1c(COP(=O)(NCCBr)NCCBr)cnc1[N+](=O)[O-] [Evofosfamide]	1.07
C[C@@H]1CC[C@]2(NC1)O[C@H]1C[C@H]3[C@@H]4CC=C5C[C@@H](O)CC[C@]5(C)[C@H]4CC[C@]3(C)[C@H]1[C@@H]2C [Solasodine]	0.97
CN1CCC(C(=O)c2cccc(NC(=O)c3c(F)cc(F)cc3F)n2)CC1 [Lasmiditan]	0.914
Cc1sc2c(c1C)C(c1ccc(Cl)cc1)=N[C@@H](CC(=O)OC(C)(C)C)c1nnc(C)n1-2	0.83
Cc1c(N[C@@H](c2nnc(-c3ccc(C#N)cc3)o2)[C@H](C)O)ccc(C#N)c1Cl [Testolone]	1.21
C[N+]1(C)CCCC(OC(=O)C(O)(c2ccccc2)c2ccccc2)C1 (centres undefined) [Mepenzolate Bromide]	0.886
COc1cc(OC)c(OC)cc1C=O [Asarylaldehyde]	1.18
OC(c1ccccc1)(c1ccccc1)C1CCNCC1 [Ataractan]	1.04
C/C(O)=C(\C#N)C(=O)Nc1cc(Br)ccc1Br	0.99
OC1C[C@H]2CC[C@@H](C1)N2 (some centres undefined) [Nortropine]	0.974
COc1cc([C@@H]2c3cc4c(cc3[C@@H](O)[C@H]3COC(=O)[C@H]23)OCO4)cc(OC)c1O [4'-Demethylepipodophyllotoxin]	0.904
Cc1ccccc1-n1c(Cn2ncc3c(N)ncnc32)nc2cccc(C)c2c1=O	0.957
CCC1(C)CC(=O)NC(=O)C1 [Bemegrid]	0.835
CN(C)C(=O)Oc1ccc[n+](C)c1 [Mestinon]	1.05
CC1=C2C[C@H]3[C@@H](CC=C4C[C@@H](O)CC[C@@]43C)[C@@H]2CC[C@]12O[C@@H]1C[C@H](C)CN[C@H]1[C@H]2C [Cyclopamine]	0.999
CC(C)NCC(O)c1ccccc1Cl (centres undefined) [Clorprenaline hydrochloride]	0.96
O=c1[nH]c2ccccc2n1C1CCN(CCCC(c2ccc(F)cc2)c2ccc(F)cc2)CC1 [Pimozide]	0.913
C[C@@H]1C(=O)O[C@H]2[C@H](O)[C@@]34O[C@@H]5OC(=O)[C@H](O)[C@@]56[C@H](C(C)(C)C)[C@H](O)C(OC3=O)[C@]64[C@@]12O (some centres undefined) [Ginkgolide C]	0.969
CN[C@@H](Cc1c[nH]c2ccccc12)C(=O)O [Abrine]	1.07
CCCCCCCCC(=O)NCc1ccc(O)c(OC)c1 [Nonivamide]	0.973

SMILES	cell viability
c1ccc2c(c1)[nH]c1cnccc12 [Norharmane]	0.986
N#CC(C#N)=Cc1ccc([N+](=O)[O-])c(O)c1	1.05
NCCCNCCSP(=O)(O)O [Amifostine]	0.91
COC1=C[C@]23CCCN2CCc2cc4c(cc2[C@@H]3[C@@H]1O)OCO4 [Cephalotaxine]	0.873
C[C@]12CCC(=O)C(O)=C1CC[C@@H]1[C@@H]2CC[C@]2(C)C(=O)CC[C@@H]12 [Formestane]	1.08
CNCC(O)c1ccc(O)cc1 (centres undefined) [Synephrine]	0.917
CNCC(O)c1ccc(O)cc1 (centres undefined) [Synephrine HCl]	1.17
CCC1=C[C@H]2CN3CCc4c([nH]c5ccccc45)[C@](C(=O)OC)(C2)[C@H]13 [Catharanthine]	1.18
CN1[C@@H]2CC[C@H]1C[C@@H](OC(=O)C(CO)c1ccccc1)C2 (some centres undefined) [Atropine]	1.27
CCOc1ccccc1-n1c(C(C)N2CCN(C(=O)COc3ccc(Cl)cc3)CC2)nc2ccccc2c1=O (centres undefined) [Erastin]	1.07
COc1ccc2[nH]cc(C3=CCNCC3)c2c1	0.966
Cc1sc2c(c1C)C(c1ccc(Cl)cc1)=N[C@@H](CC(=O)Nc1ccc(O)cc1)c1nnc(C)n1-2 [Birabresib]	0.907
COc1ccc(C(CN(C)C)C2(O)CCCCC2)cc1 (centres undefined) [Venlafaxine hydrochloride]	0.995
CCN(CC)CCOC(=O)C(O)(c1ccccc1)c1ccccc1 [Benactyzine hydrochloride]	0.883
CNC(=O)Oc1ccc2c(c1)[C@]1(C)CCN(C)[C@@H]1N2C [Physostigmine Salicylate]	1.07
Nc1ncnc2c1ccn2[C@@H]1O[C@H](CO)[C@@H](O)[C@H]1O [Tubercidin]	0.389
CN(C)C(=O)Oc1cccc([N+](C)(C)C)c1 [Hodostin]	0.784
CN(C)C(=O)Oc1cccc([N+](C)(C)C)c1 [Neostigmine bromide]	0.769
CN1[C@H]2C[C@H](OC(=O)[C@H](CO)c3ccccc3)C[C@@H]1[C@@H](O)C2 [Anisodamine]	0.945
